Among all 340,000 compounds or so, about 6,900 (2%) were called active. No stated cut-off is given here; in the data, active means inhibition above about 30%; inactive means below that, where a call was filed. The entries are a selection whose mix differs from that of the whole data set. Entries without a call were filed so in the source.

For this experiment, the target named is D(2) dopamine receptor (Homo sapiens) (UniProt P14416). The experiment in a line: HTS Assay for Allosteric Antagonists of the Human D2 Dopamine Receptor: Primary Screen for Antagonists. Further: 0% is about no effect. The conditions noted are these: HEK293 TREx D2 cells, calcium flux, dopamine EC80; at 10 µM; stronger effect = higher value. The method, boiled down: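 Overnight-induced (tetracycline, 30 C) HEK293 T-REx cells carrying force-coupled D2 receive a no-wash calcium dye, then compound, then EC80 dopamine at 180 s; signals are read kinetically throughout.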
UniProt P14416, sequence (P14416 whole entry, looked up): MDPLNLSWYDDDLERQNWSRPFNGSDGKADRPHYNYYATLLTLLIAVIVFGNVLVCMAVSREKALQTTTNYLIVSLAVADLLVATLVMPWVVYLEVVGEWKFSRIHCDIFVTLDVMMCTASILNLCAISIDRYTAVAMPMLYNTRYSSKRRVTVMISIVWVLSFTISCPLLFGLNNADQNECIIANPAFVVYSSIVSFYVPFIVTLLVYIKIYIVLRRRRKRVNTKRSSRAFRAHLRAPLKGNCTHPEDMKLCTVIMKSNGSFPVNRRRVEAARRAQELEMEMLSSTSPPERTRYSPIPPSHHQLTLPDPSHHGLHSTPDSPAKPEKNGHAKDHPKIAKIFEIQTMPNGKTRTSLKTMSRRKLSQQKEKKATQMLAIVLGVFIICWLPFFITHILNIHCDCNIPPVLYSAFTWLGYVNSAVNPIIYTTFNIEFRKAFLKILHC
For orientation: Calcium flux is commonly read through the fluorescence of an indicator in the cells.
On to `Cc1cc(Nc2cccc(C)c2C)n2cnnc2n1`, for which the inhibition (in general, the relative decrease from the control value, in per cent) was -14.9%.

As for `Cc1ccc(C(=O)CC2(O)C(=O)N(CCc3ccccc3)c3ccc(Cl)cc32)cc1` (stereo not drawn), the inhibition is -14.3%.

With `Cn1c(=O)c2c(-c3ccccc3Cl)n(-c3cc(Cl)ccc3O)cc2n(C)c1=O`, the inhibition was -0.64%.

On to `COc1cc(NC(=O)CCc2nc(-c3cccs3)no2)cc(OC)c1OC`, for which the inhibition was -8.78%.

Consider `Cc1ccc2c(=O)cc(C(=O)Nc3cccc(Cl)c3C)oc2c1C`, for which the inhibition was -0.207%.

For `COc1ccc(C2C(O)C(c3c[nH]c4ccccc34)=NN2C(=O)CCl)cc1` (stereo not drawn), the inhibition was active: 31.6%.

Consider `COc1ccc(NC(=S)Nc2ccccc2Cl)cn1`, for which the inhibition was active: 40.5%.

Regarding `CC(=O)c1ccc(N2CCN(S(=O)(=O)c3ccc(-c4cc(C(F)(F)F)on4)s3)CC2)cc1`, the inhibition is 6.41%.

Take `O=C(NCc1cccnc1)c1cn(-c2ccccc2)nc1-c1ccccc1`: the inhibition is active: 43.9%.

In the case of `Cc1ccccc1OCC(=O)OCc1cc(=O)n2nc(C3CCCCC3)sc2n1`, the inhibition was -1.13%.

On to `CCc1c(-c2ccccc2)nc2ccccc2c1C(=O)NCCc1ccccc1`, for which the inhibition was determined as 1.01%.

In the case of `CCC(C)(C)C(=O)Nc1nnc(CCc2ccccc2)s1`, the inhibition is active: 43.8%.

With `Cc1csc2nc(COc3ccccc3NC(=O)c3ccco3)cc(=O)n12`, the inhibition was -11.7%.

For `CSc1cccc(NC(=O)Cn2c3ncccc3c(=O)n2-c2ccc(C)cc2)c1`, the inhibition was -0.196%.

As for `Cc1ccc(C)c(CN2C(=O)c3ccccc3S(=O)(=O)c3ccc(C(=O)N4CCCCCC4)cc32)c1`, the inhibition turned out to be 9.12%.

With `O=C(NCC(c1ccco1)S(=O)(=O)c1cccs1)c1ccc(F)cc1` (stereo not drawn), the inhibition turned out to be 8.37%.

Regarding `CC(=O)Nc1ccc(C2Sc3ccccc3NC3=C2C(=O)c2ccccc23)cc1` (stereo not drawn), the inhibition is -7.27%.

Turning to `CCOC(=O)c1ccc2oc(=O)n(Cc3ccccc3)c2c1`, the inhibition is 10.8%.

On to `Cc1oc2ncn(CC(C)C)c(=O)c2c1C(=O)NCCCN1CCCCC1`, for which the inhibition is -2.21%.

Regarding `O=C(COc1ccc(F)cc1)Nc1ccc2nc(SCC(=O)N3CCc4ccccc43)sc2c1`, the inhibition was determined as 10.6%.

For `COc1ccccc1CNC(=O)c1ccc(N2CCCC2)c(NC(=O)NCCC(C)C)c1`, the inhibition worked out at 18.5%.

Turning to `Cc1cc(C)c(NC(=O)c2cc3sc(Cl)cc3n2C)c(C)c1`, the inhibition was 18.6%.

Consider `CS(=O)(=O)NCCNC(=O)c1cc(OCC(F)(F)F)ccc1OCC(F)(F)F`, for which the inhibition was active: 30.8%.

With `CCOc1cccc2cc(-c3nc4ccc(C(=O)O)cc4[nH]3)c(=O)oc12`, the inhibition was 22.9%.

On to `CCOc1ccc(NC(=O)CSc2nnc3scc(-c4ccc(Cl)cc4)n23)cc1`, for which the inhibition was -14.3%.

As to `COc1ccc(C)cc1S(=O)(=O)N1CCN(c2cccc(Cl)c2)CC1`, the inhibition is 2.32%.

In the case of `COc1cc2oc(=O)c(CC(=O)N3CCCCC3)c(C)c2cc1Cl`, the inhibition worked out at 13%.

`Cc1cccc(-n2c3nc(=O)[nH]c(=O)c-3cc3c(Cl)cccc32)c1C`: the inhibition is 5.85%.

`Cc1cccc(NC(=O)CN(C)C(=O)c2ccc3ccccc3n2)c1C`: the inhibition was active: 30.1%.

Take `CC(=O)N1CCc2c(sc3c2c(=O)n(-c2ccccc2)c(=O)n3CC(=O)Nc2ccccc2C)C1`: the inhibition is -11.3%.

For the compound `COc1ccc(NC(=O)c2oc3ccccc3c2NC(=O)c2cc3ccccc3o2)cc1`, the inhibition was found to be 11%.

With `COc1ccc2c(c1)CC(NC(=O)Nc1c(C)cc(C)cc1C)CO2` (stereo not drawn), the inhibition came out at 11.1%.

Take `Cc1ccc(OC(=O)c2cc(-c3ccc4c(c3)OCCO4)on2)cc1C`: the inhibition was -19.1%.

Regarding `CCOc1ccc(NS(=O)(=O)c2ccc3[nH]cc(C(=O)N(C)Cc4ccccc4)c(=O)c3c2)cc1`, the inhibition is -0.918%.

On to `CCOC(=O)c1cccc(NC(=O)c2cc(CN3CCOCC3)on2)c1`, for which the inhibition is -3.38%.

Take `CCN(CC)S(=O)(=O)c1ccc(C(=O)Nc2nc3c(Cl)cc(Cl)cc3s2)cc1`: the inhibition was found to be 1.55%.

For `CCOC(=O)c1ccc(NC(=O)COCc2cc(-c3ccc4c(c3)OCO4)on2)cc1`, the inhibition is -4.94%.

Take `N#CCC1c2ccccc2CCN1C(=O)Nc1ccc(C(F)(F)F)cc1` (stereo not drawn): the inhibition is active: 64.6%.

Regarding `CCOC(=O)CNC(=O)N1CCc2cc(S(=O)(=O)N3CCC(C)CC3)ccc21`, the inhibition was -5.82%.

Turning to `CNC(=O)N(O)C1N(/N=C/c2cc(Br)ccc2O)C(=S)SC1(C)C` (stereo not drawn), the inhibition is active: 49.5%.

Take `CNC(=O)C1CCC(Cn2c(=O)[nH]c3ccsc3c2=O)CC1` (stereo not drawn): the inhibition was -17.7%.

For `CCOC(=O)c1ccc(N2C(=O)c3n[nH]c(C)c3C2c2ccc(C(C)(C)C)cc2)cc1` (stereo not drawn), the inhibition is 10.6%.

For `Cc1cccc(OC(=O)c2cc(-c3ccc4c(c3)OCCO4)on2)c1`, the inhibition was 7.46%.

Turning to `Cc1ccc(NS(=O)(=O)c2ccc3c(c2)NC(=O)CCS3)cc1C`, the inhibition is 14.6%.

Consider `Cc1ccccc1-n1c(/C=C/c2c(C)n(C)c3ccccc23)nc2ccccc2c1=O`, for which the inhibition was -4.26%.

As for `CC(C)(C)OC(=O)N1CCC(c2c(C(=O)N3CCN(c4ncccn4)CC3)cnn2-c2ccccc2)CC1`, the inhibition is -2.52%.

On to `CC(C)C12CN3CC(C(C)C)(CN(C1)C3c1ccc(Cl)cc1)C2=O` (stereo not drawn), for which the inhibition was 2.21%.

With `COc1ccc(-c2nc3ccccc3o2)cc1NC(=O)C(C)Oc1ccc(Cl)cc1Cl` (stereo not drawn), the inhibition is -25.6%.

Regarding `Cc1nc2ccccc2n1CCc1nc2c3ccccc3nc(SCC(=O)Nc3ccc(Br)cc3F)n2n1`, the inhibition was determined as 3.12%.

For the compound `CN1CCN(c2oc(-c3ccc(COc4ccc(Cl)cc4)o3)nc2C#N)CC1`, the inhibition was -0.477%.

`N#Cc1nc(-c2ccc(COc3ccccc3)o2)oc1NCc1ccccc1`: the inhibition was 9.75%.

As for `O=C(CN1C(=O)CCc2cc(S(=O)(=O)N3CCOCC3)ccc21)Nc1cccc(Cl)c1`, the inhibition was 7.51%.

As for `Cc1ccc(CNC(=O)CSc2nc(=O)[nH]c3c2CCCC3)cc1`, the inhibition came to 22.6%.

As for `CCCSc1ncc(Cl)c(C(=O)N(Cc2ccc(N(C)C)cc2)C2CCS(=O)(=O)C2)n1` (stereo not drawn), the inhibition is 0.95%.

As to `COc1ccc(NC(=O)Cn2cnc3sc(C)c(S(=O)(=O)N4CCN(C)CC4)c3c2=O)cc1Cl`, the inhibition stood at 0.528%.

In the case of `CCC(O)c1cc2c(cc1NC(=O)c1cccc(Br)c1)OCCO2` (stereo not drawn), the inhibition was found to be 8.2%.

As for `COc1ccc(-c2cn3c(n2)sc2cc(C(=O)NCCCN4CCCCCC4)ccc23)cc1`, the inhibition was -2.28%.

With `CC[C@@]12C(=O)N(c3cccc(Br)c3)C(=O)N1[C@H](c1ccc(Br)cc1)[C@@H]1C(=O)N(C(C)(C)C)C(=O)[C@@H]12`, the inhibition is active: 32.3%.

Take `CCCOC(=O)c1c(NC(=O)C2c3ccccc3Oc3ccccc32)sc2c1CCC(C)C2` (stereo not drawn): the inhibition was -5.27%.

`COc1ccccc1NC(=O)c1c(NCc2ccc(C)o2)sc2c1CCC(C)C2` (stereo not drawn): the inhibition came out at 4.66%.

As for `COCCc1nn2c(=O)cc(COC(=O)COc3ccc(F)cc3)nc2s1`, the inhibition is -4.9%.

On to `CCN1CCN(C(c2ccccc2)c2sc3nc(-c4ccco4)nn3c2O)CC1` (stereo not drawn), for which the inhibition was -22.9%.

Regarding `Cc1ccc(-c2csc(=Nc3ccccc3)n2Cc2ccc3c(c2)OCO3)cc1C`, the inhibition is 17%.

For the compound `COc1ccccc1C(=O)n1nc(-c2ccco2)nc1NCc1ccc(Cl)cc1`, the inhibition came to 11.7%.

For `CC1=CS(=O)(=O)CC1Sc1nc2ccccc2[nH]1` (stereo not drawn), the inhibition is active: 37.7%.

With `CC(C(=O)Nc1cc(C(F)(F)F)ccc1Cl)n1nnc2sc3c(c2c1=O)CCCC3` (stereo not drawn), the inhibition was 12.7%.

Regarding `COc1cccc(CNC(=O)c2nn(-c3ccccc3Cl)nc2CO)c1`, the inhibition was 8.62%.

With `Cc1ccc2oc(-c3ccc(C)c(NC(=O)c4ccc(C(C)(C)C)cc4)c3)nc2c1`, the inhibition was determined as 8.26%.

As to `CCOC(=O)CNC(=O)c1sc(NC(=O)/C=C/c2ccccc2)nc1C`, the inhibition was active: 33.8%.

As for `c1csc(C2=NC(c3ccncc3)=Nc3ccccc3N2)c1`, the inhibition is -25.6%.

On to `O=C(CSC1=Nc2ccccc2N=C(c2ccc(F)cc2)C1)NCc1ccccc1`, for which the inhibition was 5.29%.

Take `COc1ccc2nc(/N=C(\N)NC(=O)C(C)(C)C)nc(C)c2c1`: the inhibition is active: 35.4%.

Take `CC1CCCN(Cc2cn3c(-c4cccc(Br)c4)nnc3s2)C1` (stereo not drawn): the inhibition is -13.7%.

Turning to `O=C(NCCc1ccc(Cl)cc1)c1ccc(Cn2c(=O)c3cccn3c3cccnc32)cc1`, the inhibition came to 18.6%.

For the compound `Cc1ccc(CNc2nc3ccccc3c3nc(-c4cccc(C)c4)nn23)cc1`, the inhibition was found to be 4.18%.

With `COc1ccc(Cn2c(CNS(=O)(=O)c3ccc4c(c3)CCCC4)nc3cccnc32)cc1`, the inhibition worked out at 12.8%.

As to `O=C(c1cnc(N2CCCCC2)c2ccccc12)N1CCN(c2ccccc2F)CC1`, the inhibition was determined as 19.4%.

With `CCCSc1oc(-c2cccs2)nc1S(=O)(=O)c1ccc(Cl)cc1`, the inhibition was 7.05%.

On to `COc1ccc(CNC(=O)CCc2c(C)nn(-c3ccc(N4CCCCC4)nn3)c2C)c(OC)c1`, for which the inhibition is -9.04%.

For `O=C(c1ccc2c(c1)OCCO2)N(Cc1cccnc1)c1nc2c(F)cccc2s1`, the inhibition was -8.76%.

For the compound `Cc1cccc(-c2noc(CN(C(=O)c3ccccc3Cl)C(C)C)n2)c1`, the inhibition was -7.35%.

On to `Cn1c(C(=O)NCCc2ccccc2)cc2c(=O)n3ccccc3nc21`, for which the inhibition came to 26.9%.

For the compound `Cc1ccc(N2CC(NC(=O)c3ccc(S(=O)(=O)N4CCOCC4)cc3)CC2=O)cc1C` (stereo not drawn), the inhibition was 20%.

With `CN(C)CCCCOc1ccccc1-c1ccccc1`, the inhibition is active: 70.6%.

On to `Cc1cccc(CNC(=O)C2CCN(c3nnc(-n4c(C)ccc4C)s3)CC2)c1`, for which the inhibition stood at 7.73%.

In the case of `Cc1cc2oc(=O)c(CC(=O)O)c(C)c2c2occ(-c3ccc(F)cc3)c12`, the inhibition was -6.81%.

Regarding `COc1ccc(NS(=O)(=O)c2cc(Br)cc3c2N(C(C)=O)CC3)cc1`, the inhibition was active: 62.8%.

Turning to `COc1ccc(C2C(=O)N(C3CCC(C)CC3)CC(=O)N2Cc2ccccc2Cl)cc1OC` (stereo not drawn), the inhibition is -28.3%.

On to `CC(C)(C)c1ccccc1OCC(O)CN1CCN(c2ccccn2)CC1` (stereo not drawn), for which the inhibition was active: 62.4%.

For `Cc1ccc(Sc2c(C)nn(C(=O)COc3ccc(F)cc3)c2C)cc1`, the inhibition is -0.256%.

In the case of `O=C(NCCN1CCN(c2ccccc2)CC1)Nc1ccccc1Br`, the inhibition is active: 76%.

Take `COc1cccc(C2c3c(oc4ccc(C)cc4c3=O)C(=O)N2CCCN2CCOCC2)c1OC` (stereo not drawn): the inhibition was -14.7%.

With `Cc1cccc(-c2noc(-c3cccnc3NCc3ccco3)n2)c1`, the inhibition came out at 18.7%.

As for `COc1ccc(-n2c(=O)c3c4c(sc3n(Cc3cc(C)ccc3C)c2=O)CN(C(C)=O)CC4)c(OC)c1`, the inhibition is -17.9%.

Consider `CCOC(=O)C1(Cc2ccccc2)CCN(Cc2cnn(-c3ccccc3)c2)CC1`, for which the inhibition is active: 33.3%.

Regarding `CCCn1c2ccccc2c2cnn(CC(=O)N3CCC(C(=O)OCC)CC3)c(=O)c21`, the inhibition was -11.4%.

Take `Cc1ccc(CNc2nc3ccccc3n3c(C)nnc23)cc1`: the inhibition amounted to 12.9%.

`CC(=O)CC1(O)C(=O)N(Cc2ccccc2)c2ccccc21` (stereo not drawn): the inhibition was active: 61.4%.

Source of the values: PubChem BioAssay AID485344 (National Center for Advancing Translational Sciences (NCATS), 2010).
